From patent US20260216242A1 (ALMAC DISCOVERY, published 2026)

Legend:
[1] = target: human ALPP (alkaline phosphatase, placental type) stably expressed on the surface of CHO cells (human, UniProt P05187 23-506); assay: cell-based or functional assay
[2] = target: human ALPPL2 (alkaline phosphatase, germ cell type) stably expressed on the surface of CHO cells (human, UniProt P10696 20-503); assay: cell-based or functional assay
[3] = target: human ALPP expressed on CHO cells (CHO-ALPP) (human, UniProt P05187 23-506); assay: cell-based or functional assay
[4] = target: T1, human ALPI expressed on CHO cells (CHO-ALPI) (human, UniProt P09923 20-503); assay: cell-based or functional assay
T1 sequence (looked up): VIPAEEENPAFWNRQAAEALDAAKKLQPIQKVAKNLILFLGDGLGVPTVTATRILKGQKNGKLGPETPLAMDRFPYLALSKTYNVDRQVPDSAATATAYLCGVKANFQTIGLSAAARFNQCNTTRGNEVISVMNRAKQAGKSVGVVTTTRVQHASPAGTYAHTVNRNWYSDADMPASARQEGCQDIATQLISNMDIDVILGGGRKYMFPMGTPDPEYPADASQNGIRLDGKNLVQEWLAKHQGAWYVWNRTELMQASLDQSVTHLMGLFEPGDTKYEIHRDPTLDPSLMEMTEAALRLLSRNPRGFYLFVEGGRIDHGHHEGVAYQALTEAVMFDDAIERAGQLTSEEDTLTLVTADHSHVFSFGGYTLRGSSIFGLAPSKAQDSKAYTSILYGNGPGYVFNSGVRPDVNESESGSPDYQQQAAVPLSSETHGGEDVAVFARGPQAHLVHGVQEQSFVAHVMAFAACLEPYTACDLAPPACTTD

[5] = target: T2, human ALPL expressed on CHO cells (CHO-ALPL) (human, UniProt P05186 18-501); assay: cell-based or functional assay
T2 sequence (looked up): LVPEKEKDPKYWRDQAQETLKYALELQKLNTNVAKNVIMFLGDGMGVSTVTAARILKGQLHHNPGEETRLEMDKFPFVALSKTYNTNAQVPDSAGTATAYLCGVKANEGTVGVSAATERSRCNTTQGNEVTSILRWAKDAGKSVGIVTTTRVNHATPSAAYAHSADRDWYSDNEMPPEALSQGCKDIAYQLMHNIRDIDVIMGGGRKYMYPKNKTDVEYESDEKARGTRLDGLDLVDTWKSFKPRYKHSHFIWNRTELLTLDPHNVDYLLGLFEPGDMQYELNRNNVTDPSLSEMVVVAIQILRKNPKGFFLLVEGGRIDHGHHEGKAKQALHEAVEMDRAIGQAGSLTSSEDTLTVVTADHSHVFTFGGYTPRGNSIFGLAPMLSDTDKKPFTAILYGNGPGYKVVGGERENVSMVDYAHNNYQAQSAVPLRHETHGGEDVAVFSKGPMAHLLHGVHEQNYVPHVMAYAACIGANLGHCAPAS

[6] = target: human ALPPL2 expressed on CHO cells (CHO-ALPPL2) (human, UniProt P10696 20-503); assay: cell-based or functional assay
[7] = target: T3, Human ALPPL2 (leucine zipper) (human); assay: BLI, KD app (antigen immobilised on AR2G sensor)
T3 construct: Soluble human ALPPL2 fused to a disulphide stabilised leucine zipper and a His tag; The whole entry is the construct; also called hALPPL2; ALPG
T3 chain: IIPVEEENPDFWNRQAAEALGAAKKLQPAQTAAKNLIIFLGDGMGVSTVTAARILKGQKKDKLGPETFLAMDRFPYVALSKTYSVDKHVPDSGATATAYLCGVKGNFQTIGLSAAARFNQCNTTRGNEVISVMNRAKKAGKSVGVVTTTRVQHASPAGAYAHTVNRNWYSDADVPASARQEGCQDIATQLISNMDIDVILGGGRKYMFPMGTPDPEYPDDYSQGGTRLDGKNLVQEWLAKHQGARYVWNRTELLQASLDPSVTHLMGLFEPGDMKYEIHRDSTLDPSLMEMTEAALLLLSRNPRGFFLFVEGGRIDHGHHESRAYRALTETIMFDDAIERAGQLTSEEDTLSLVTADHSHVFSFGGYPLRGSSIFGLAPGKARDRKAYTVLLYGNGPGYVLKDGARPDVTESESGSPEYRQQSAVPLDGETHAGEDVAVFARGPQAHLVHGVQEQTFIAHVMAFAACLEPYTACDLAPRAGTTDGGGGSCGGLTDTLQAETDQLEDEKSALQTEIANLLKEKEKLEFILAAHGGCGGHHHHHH
Method: (§1) Binding kinetics were determined using the Biolayer Interferometry (BLI) Octet K2 or R4 system (Sartorius). […] For KD apparent measurements, the ALPP proteins were immobilised in sodium acetate pH5 buffer to AR2G sensors using amine coupling. To measure 1:1 interactions, AHC biosensors were used to immobilise Fc-fused proteins. All assays were conducted in HBS-EP with a plate temperature of 25° C. Ka (M⁻¹s⁻¹), Kd (s⁻¹) and KD (nM) values were determined using Octet Data Analysis High Throughput software (Sartorius) for Biolayer Interferometry.

[8] = target: T4, Human ALPP (leucine zipper) (human); assay: BLI, KD app (antigen immobilised on AR2G sensor)
T4 construct: Soluble human ALPP fused to a disulphide stabilised leucine zipper and a His tag; The whole entry is the construct; also called hALPP; PLAP
T4 chain: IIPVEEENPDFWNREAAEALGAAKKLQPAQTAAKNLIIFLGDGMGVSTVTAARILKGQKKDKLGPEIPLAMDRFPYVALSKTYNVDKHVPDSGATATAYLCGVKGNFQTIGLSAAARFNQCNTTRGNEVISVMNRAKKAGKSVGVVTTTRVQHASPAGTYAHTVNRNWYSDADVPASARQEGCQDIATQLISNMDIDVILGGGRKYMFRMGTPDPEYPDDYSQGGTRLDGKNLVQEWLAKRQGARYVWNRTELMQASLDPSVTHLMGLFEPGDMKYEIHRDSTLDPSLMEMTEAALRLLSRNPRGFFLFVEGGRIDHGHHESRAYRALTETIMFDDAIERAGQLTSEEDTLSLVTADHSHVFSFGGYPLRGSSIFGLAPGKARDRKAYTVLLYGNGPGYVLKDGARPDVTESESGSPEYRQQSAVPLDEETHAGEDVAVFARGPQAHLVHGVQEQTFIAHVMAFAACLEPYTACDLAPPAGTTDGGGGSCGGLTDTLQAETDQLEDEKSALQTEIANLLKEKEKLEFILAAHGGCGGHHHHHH
Method: as §1

[9] = target: T5, Human ALPL (leucine zipper) (human); assay: BLI
T5 construct: Soluble human ALPL fused to a disulphide stabilised leucine zipper and a His tag; also called hALPL; TNAP
T5 chain: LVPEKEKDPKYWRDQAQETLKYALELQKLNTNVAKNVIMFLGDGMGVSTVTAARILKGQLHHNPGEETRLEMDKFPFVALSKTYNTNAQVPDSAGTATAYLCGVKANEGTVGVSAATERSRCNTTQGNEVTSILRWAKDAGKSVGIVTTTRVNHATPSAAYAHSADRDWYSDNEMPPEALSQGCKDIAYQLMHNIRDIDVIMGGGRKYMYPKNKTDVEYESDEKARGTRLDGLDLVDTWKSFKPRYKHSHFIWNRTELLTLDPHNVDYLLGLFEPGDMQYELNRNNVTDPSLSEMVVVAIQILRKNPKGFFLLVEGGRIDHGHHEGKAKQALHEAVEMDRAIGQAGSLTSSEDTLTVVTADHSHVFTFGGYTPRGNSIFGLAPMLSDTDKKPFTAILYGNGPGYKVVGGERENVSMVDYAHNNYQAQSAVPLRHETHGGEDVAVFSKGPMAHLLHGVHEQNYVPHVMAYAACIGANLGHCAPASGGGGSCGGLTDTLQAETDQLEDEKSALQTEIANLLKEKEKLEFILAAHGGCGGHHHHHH
Method: as §1

[10] = target: T3, Human ALPPL2 (leucine zipper); assay: BLI, KD 1:1 (Fc fusion captured on AHC sensor)
Method: as §1

[11] = target: T4, Human ALPP (leucine zipper); assay: BLI, KD 1:1 (Fc fusion captured on AHC sensor)
Method: as §1

B1: D10 A06-hFc (S239C F405L/K409R) conjugated to MC-vc-PAB-MMAE (Fc fusion, DAR 2.8)
chain 1: QVQLVESGGGLVQPGGSLRLSCAASGSIFSVNTMGWYRQAPGKQRDLVAVATSGGTIHYADSVKGRFTISRDNAKNTVYLQMNSLKPEDTAVYYCNLVVPYGMIAGDHDYWGQGTKVTVSSGGGGSGGGGSGGGGS[human IgG1 Fc with changes not spelt out]
chain 2: QVHLVESGGGLVQAGGSLRLSCAASGRTFLSMGWFRQAPGKEREFVAAISWTGGSTGYADSVKGRFTISRESDKETMYLQMNSLKPEDTAVYYCAARGDVYYGGDDATRYKYWGQGTQVTVSSGGGGSGGGGSGGGGS[human IgG1 Fc with changes not spelt out]
modifications: MC-vc-PAB-MMAE on Cys 239 (S239C, EU numbering)
IC50 @ 96 h (nM), cell-killing of CHO-ALPP cells (Cell Titre Glo) [1]: 18 nM
IC50 @ 96 h (nM), cell-killing of CHO-ALPPL2 cells (Cell Titre Glo) [2]: 626 nM

B2: E06-hFc (S239C)-MA-PEG4-vc-PAB-EDA-PNU159682 (Fc fusion)
chain: QVHLVESGGGLVQAGGSLRLSCAASRRSFSEYAMGWFRQAPGKEREFVAAIGWSGVIEYADSVKGRFTISRDNAKDTVYLQMNSLKPEDTAVYYCAAGLGIRVVSQTPAYWGQGTQVTVSSGGGGSGGGGSGGGGS[human IgG1 Fc with changes not spelt out]
modifications: MA-PEG4-vc-PAB-EDA-PNU159682 on Cys 239 (S239C, EU numbering); DAR 1.97
cell killing IC50 @ 96 h, CHO-ALPP cells (Cell Titre Glo) [3]: 9.8 nM
cell killing IC50 @ 96 h, CHO-ALPI cells (Cell Titre Glo) [4]: 752 nM
cell killing IC50 @ 96 h, CHO-ALPL cells (Cell Titre Glo) [5]: > 1000 nM
cell killing IC50 @ 96 h, CHO-ALPPL2 cells (Cell Titre Glo) [6]: 19.8 nM

B3: E10-hFc (S239C)-MA-PEG4-vc-PAB-EDA-PNU159682 (Fc fusion)
chain: QVQLVESGGGLVQAGGSLRLSCAVSGRALSDYNIGWFRQAPGKEREFVARKTWDGSSTRYDDSVKGRFTVSIEDAKNTAYLQMSSLKTEDTAVYYCAAGRYSRARGWEYDYWGQGTQVTVSSGGGGSGGGGSGGGGS[human IgG1 Fc with changes not spelt out]
modifications: MA-PEG4-vc-PAB-EDA-PNU159682 on Cys 239 (S239C, EU numbering); DAR 1.98
cell killing IC50 @ 96 h, CHO-ALPP cells (Cell Titre Glo) [3]: 9.8 nM
cell killing IC50 @ 96 h, CHO-ALPI cells (Cell Titre Glo) [4]: 700 nM
cell killing IC50 @ 96 h, CHO-ALPL cells (Cell Titre Glo) [5]: > 1000 nM
cell killing IC50 @ 96 h, CHO-ALPPL2 cells (Cell Titre Glo) [6]: 12.3 nM

B4: D10 A06-hFc (S239C), [G4S]3 linkers (Fc fusion)
chain 1: QVQLVESGGGLVQPGGSLRLSCAASGSIFSVNTMGWYRQAPGKQRDLVAVATSGGTIHYADSVKGRFTISRDNAKNTVYLQMNSLKPEDTAVYYCNLVVPYGMIAGDHDYWGQGTKVTVSSGGGGSGGGGSGGGGS[human IgG1 Fc with C220S S239C T366Y (EU numbers) not spelt out]
chain 2: QVHLVESGGGLVQAGGSLRLSCAASGRTFLSMGWFRQAPGKEREFVAAISWTGGSTGYADSVKGRFTISRESDKETMYLQMNSLKPEDTAVYYCAARGDVYYGGDDATRYKYWGQGTQVTVSSGGGGSGGGGSGGGGS[human IgG1 Fc with C220S S239C Y407T (EU numbers) not spelt out]
notes: Biparatopic knobs-into-holes heterodimer; also called #605
Kd [7]: 1.22 nM
koff [7]: 0.000658 s⁻¹
kon [7]: 540000 M⁻¹ s⁻¹
Kd [8]: < 0.01 nM
koff [8]: < 1e-07 s⁻¹
kon [8]: 284000 M⁻¹ s⁻¹
binding result [9]: no binding
Kd [10]: < 0.01 nM
koff [10]: < 1e-07 s⁻¹
kon [10]: 505000 M⁻¹ s⁻¹
Kd [11]: < 0.01 nM
koff [11]: < 1e-07 s⁻¹
kon [11]: 443000 M⁻¹ s⁻¹
